# Laboratory results from PubChem BioAssay AID686979 (National Center for Advancing Translational Sciences (NCATS), 2013).
# Values joined by “and” are separate entries in the source; they are usually repeats but may differ in a detail not shown here. Equal entries are not always repeated. About 50,000 (12%) of roughly 420,000 compounds were called active. This list was built around the results that the source calls inconclusive (neither active nor inactive); the mix of calls is not that of the screen. The call rests on the fitted dose curve; in most records, active means well fitted inhibition curve with a large enough effect; inconclusive means small, poorly fitted or top-dose-only effect; inactive means flat fitted curve, though single readings scatter. Potencies of inconclusive entries are left out as doubtful fits.
# Assay: qHTS for Inhibitors of human tyrosyl-DNA phosphodiesterase 1 (TDP1): qHTS in cells in presence of CPT; further: nearly all actives have a fitted effect of over 55% in size
# Conditions: chicken DT40 Tdp1-/-;hTDP1 cells + 20 nM CPT, ATP luminescence, 48 h; series mostly up to 46.2 µM
# Outline: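 Chicken DT40 Tdp1-/- cells complemented with human TDP1, 400 cells/well, exposed to compounds plus 20 nM camptothecin for at least 48 h at 37 C; viability read as ATP content by CellTiter-Glo luminescence.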
# Potency means the concentration at half of the fitted maximal effect; tags describe the fitted curve by direction and shape.
row,SMILES,Potency
1,CCCNC(=O)c1cc(C2CCCCN2C(=O)OCC(C)C)on1 (centres undefined),inactive
2,COC(=O)c1ccc(CSc2nc3c([nH]c4ccccc43)c(=O)n2-c2ccc(Cl)cc2)o1,"inconclusive [inhibitor, single point]"
3,CN(C)c1ccc(C(CNS(=O)(=O)c2ccc(F)cc2)c2c[nH]c3ccccc23)cc1 (centres undefined),"inconclusive [inhibitor, single point]"
4,CCC(CC)CN1CCC(CN2C(=S)NC[C@@H]2[C@@H](C)CC)CC1,inactive
5,COc1ccc(CN2CCN(Cc3cc(=O)oc4cc(C)ccc34)CC2)c(OC)c1OC,active: 18.4 µM and active: 25.9 µM
6,COc1cccc(N2CCN(C(=O)c3cc4ccc(OC)cc4[nH]3)CC2)c1,"inconclusive [inhibitor, single point]"
7,Nc1ccc(C(=O)OCCCc2nc3cc4ccccc4cc3[nH]2)cc1,"inconclusive [inhibitor, single point]"
8,COc1ccc(NC(=O)C2Cc3c(-c4cccc(C(N)=O)c4)ccnc3O2)cc1OC (centres undefined),active: 11.6 µM
9,CCCn1c(SCC(=O)Nc2nnc(CC)s2)nnc1-c1ccncc1,inactive
10,Cc1cc(Cl)ccc1NC(=O)c1cc(S(=O)(=O)N2CCOCC2)cn1C,"inconclusive [inhibitor, single point]"
11,CCOC(=O)C1=C(C)NC(=O)NC1c1ccc(OCC(=O)Nc2ccccc2)c(OC)c1 (centres undefined),"inconclusive [inhibitor, partial curve, poor fit]"
12,O=C(N/C(=C\c1cccc(Br)c1)C(=O)N1CCCCC1)c1ccco1,inactive
13,CCN(CC(=O)Nc1c(F)cccc1F)C(=O)Cn1[nH]c(=O)c2ccccc2c1=O,"inconclusive [inhibitor, single point]"
14,CC1Cc2ccccc2N1S(=O)(=O)c1cccc(C(=O)c2nccn2C)c1 (centres undefined),inactive
15,COc1ccccc1CNC(=O)CCCc1cn(C)c2ccccc12,"inconclusive [inhibitor, single point]"
16,Cc1cc(NS(=O)(=O)c2ccc(NC(=O)COc3ccccc3[N+](=O)[O-])cc2)no1,inactive
17,CCOC(=O)C1CCCN(C(=O)c2ccc3nc(-c4ccccc4)c(-c4ccccc4)nc3c2)C1 (centres undefined),"inconclusive [inhibitor, single point]"
18,CN(C)c1ccc(NC(=O)CSc2nc(N)c(C(=O)Nc3ccc(N(C)C)cc3)s2)cc1,active: 10 µM
19,CNc1oc(-c2ccccc2Cl)nc1P(=O)(c1ccccc1)c1ccccc1,"inconclusive [inhibitor, partial curve]"
20,Nc1nc(SCc2ccccc2)c2ncn(C3CCCCC3)c2n1,"inconclusive [inhibitor, single point]"
21,COc1ccc(CSc2ccc(-c3nc4ccccn4c3NCc3ccccc3)cc2OC)cc1,active: 9.2 µM
22,CC(=O)N1CC(C)Sc2ccc(S(=O)(=O)NCc3ccc(F)cc3)cc21 (centres undefined),"inconclusive [inhibitor, single point]"
23,NC(=O)c1ccc(C(F)(F)F)n(Cc2ccc(F)c(F)c2)c1=O,"inconclusive [inhibitor, single point]"

row,SMILES,Potency
1,CC(=O)n1nc(-c2ccncc2)nc1SCC(=O)Nc1cccc(Cl)c1,"inconclusive [inhibitor, single point]"
2,COc1cc(C(=O)OCC(=O)c2cc(C)n(CC3CCCO3)c2C)ccc1OCC(=O)N1CCOCC1 (centres undefined),"inconclusive [inhibitor, single point]"
3,CCOc1ccccc1NC(=O)COc1coc(CN2CCc3ccccc3C2)cc1=O,"inconclusive [inhibitor, single point]"
4,COCC1CCN(Cc2c(C(=O)N3CCc4ccccc4C3)nc3ccc(Cl)cn23)C1 (centres undefined),"inconclusive [inhibitor, single point]"
5,CCCc1cc(NCCCn2ccnc2)n2nc(C)c(-c3ccccc3)c2n1,"inconclusive [inhibitor, single point]"
6,CCOc1ccc(CCNC(=O)Cn2nc(-c3ccc(C)cc3)ccc2=O)cc1OCC,"inconclusive [inhibitor, single point]"
7,O=C(COc1ccc(NC(=O)c2cccs2)cc1)c1ccc(F)cc1,inactive
8,CCN(C(=O)C(C)N1C(=O)/C(=C/c2cccs2)SC1=S)C1CCS(=O)(=O)C1 (centres undefined),"inconclusive [inhibitor, single point]"
9,COc1cc2cc(CN(Cc3cccs3)C(=S)Nc3ccc(C)cc3)c(=O)[nH]c2cc1OC,active: 25.9 µM
10,COc1ccc(-c2nn(Cc3ccccc3)cc2C(=O)N2CCN(c3ccccn3)CC2)cc1OC,inactive
11,Cc1ccc(-c2nc(C3CCCN(S(=O)(=O)c4ccc(C)cc4)C3)no2)cc1 (centres undefined),active: 16.4 µM
12,CN1CCC2CC1c1cc(-c3ccc(C(F)(F)F)cc3)ccc12 (centres undefined),"inconclusive [inhibitor, single point]"
13,COC(=O)C1(c2ccccc2)NC(c2ccc(O)cc2)C2C(=O)N(c3ccc4c(c3)OCO4)C(=O)C21 (centres undefined),inactive
14,COc1cc(-c2coc3c(C(=O)NCc4cccc(Cl)c4)cccc23)ccc1O,"inconclusive [inhibitor, single point]"
15,Cc1ccc(-c2nc(CCNC(=O)C(=O)Nc3ccc(C)cc3C)cs2)cc1,inactive
16,Cc1ccc(S(=O)(=O)NCc2ccc(C(=O)NC3CCC(O)CC3)cc2)cc1C (centres undefined),inactive
17,CCN(CC)S(=O)(=O)c1ccc2c(c1)N(CC(=O)N1CCN(c3ccc(F)cc3)CC1)C(=O)CO2,"inconclusive [inhibitor, single point]"
18,O=C(Nc1cccnc1Cl)C1CCCN(c2ncnc3c2nc2n3CCCCC2)C1 (centres undefined),"inconclusive [inhibitor, single point]"
19,CC(C)NC(=O)N(C)C[C@H]1Oc2ccc(NS(=O)(=O)c3cccs3)cc2C(=O)N([C@H](C)CO)C[C@@H]1C,inactive
20,CCC(=O)N(CCC(c1ccco1)C(C)C)Cc1ccccc1 (centres undefined),"inconclusive [inhibitor, single point]"
21,CCOC(=O)c1cc(-c2ccccc2)n(CC(=O)Nc2cc(OC)cc(OC)c2)c1C,active: 20.6 µM
22,CCc1ccccc1NC(=O)C1=C(C)C(=O)OC12CCCCCC2,"inconclusive [inhibitor, single point]"
23,COC(=O)C1=C(C)N(Cc2ccccc2)C(=NCCc2cccnc2)N[C@H]1c1ccccc1,active: 11.6 µM

row,SMILES,Potency
1,CCCOc1ccc(NC(=O)CC2C(=O)N(C)C(=S)N2Cc2ccc3c(c2)OCO3)cc1 (centres undefined),"inconclusive [inhibitor, single point]"
2,CN(C(=O)c1cccc(NC(=O)Cc2cccc(NC(=O)C3CCCN(C(=O)C4CCCCC4)C3)c2)c1)C1CC1 (centres undefined),inactive
3,O=C(CN1CCN(C(c2ccccc2)c2ccccc2)CC1)N1CCN(c2ccccc2)CC1,"inconclusive [inhibitor, single point]"
4,N/C(Cc1cccc2ccccc12)=N\OC(=O)c1ccc2c(c1)OCO2,active: 16.4 µM
5,O=C1NC(Cc2ccc(O)cc2)c2nc3cc(F)ccc3c(=O)n2-c2cc3ccccc3cc21 (centres undefined),"inconclusive [inhibitor, partial curve, poor fit]"
6,CNc1ccc(Br)cc(C(=O)/C=C/c2ccc(Cl)cc2Cl)c1=O,active: 4.61 µM
7,CCC(C)NC(=O)c1cnn2c(C)c3c(nc12)CCCC3 (centres undefined),"inconclusive [inhibitor, full curve, poor fit]"
8,COc1ccc(OC)c(C(=O)c2coc3ccc(O)c(CN(C)C)c23)c1,inactive
9,CC(C)c1nn2c(=O)cc(COc3cccc(NC(=O)c4ccco4)c3)nc2s1,"inconclusive [inhibitor, partial curve]"
10,CCOC(=O)N/N=C/c1cn(Cc2ccccc2Cl)c2ccccc12,"inconclusive [inhibitor, single point]"
11,O=C(CNS(=O)(=O)c1cccs1)N1CCN(c2cccc(C(F)(F)F)c2)CC1,active: 16.4 µM
12,O=C(Nc1cccc(-c2cccc(F)c2)c1)C1CCN(C2CCC2)CC1,"inconclusive [inhibitor, single point]"
13,COC(=O)[C@@]1(Cc2ccc(F)cc2)[C@H]2c3cc(C(=O)N(C)C)n(C)c3C[C@H]2CN1C(=O)c1ccccc1,"inconclusive [inhibitor, single point]"
14,CCN1/C(=C2/SC(=S)N(NC(C)=O)C2=O)Sc2ccccc21,inactive
15,CCC(C)(C)NC(=O)/C=C/c1ccc(OC)c(S(=O)(=O)N2CCOCC2)c1,inactive
16,O=Nc1c(-c2ccccc2)[nH]n(-c2ccccc2)c1=O,inactive
17,O=C(c1ccco1)N(Cc1cccnc1)C(c1ccccc1)c1nc2ccccc2[nH]1 (centres undefined),"inconclusive [inhibitor, single point]"
18,COc1cc(C)c2c(c1C=O)Oc1c(c(C)c(O)c3c1C(O)OC3=O)OC2=O (centres undefined),inactive
19,C/C(=N\Nc1nc2ccccc2nc1C)c1ccccc1O,active: 0.13 µM
20,COc1ccc(CNC(=O)c2cc3c(=O)oc4ccc(C)cc4c3s2)c(OC)c1,inactive
21,CC1CCN(C(=S)NC(=O)c2ccco2)CC1,inactive
22,COc1ccc(OC)c(NC(=O)c2cccn2-c2nnc(N3CCCCC3)s2)c1,active: 20.6 µM
23,COc1ccc(CN2C[C@@H](CO)O[C@@H](n3cnc4c(N5CCN(CCO)CC5)ncnc43)C2)cc1,"inconclusive [inhibitor, partial curve]"
